Results as given in the supplement of paper PMC8728848.
This is one part of the list.

Columns and labels:
Test in all cases: glycan array binding signal (z-score within array); higher = stronger binding
Details in all cases: glycan notation: IUPAC condensed, linker removed
[1] = molecular target: Gal6S(b1-4)Glc
Outline: (§1)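 Arrays were curated from the Consortium for Functional Glycomics database, 3228 in total, and kept only where the protein sequence was available. Binding is expressed as a within-array Z-score. This score was averaged across arrays of the same protein sequence at different concentrations or buffers and across linkers, and negative values can be read as non-binding.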

[2] = molecular target: Gal6S(b1-4)Glc6S
Outline: as §1

[3] = molecular target: Gal6S(b1-4)GlcNAc
Outline: as §1

[4] = molecular target: Gal6S(b1-4)GlcNAc6S
Outline: as §1

[5] = molecular target: GalNAc(a1-3)Gal
Outline: as §1

[6] = molecular target: GalNAc(a1-3)GalNAc
Outline: as §1

[7] = molecular target: GalNAc(a1-3)GalNAc(a1-3)Gal(a1-4)Gal(b1-4)GlcNAc
Outline: as §1

[8] = molecular target: GalNAc(b1-3)Gal
Outline: as §1

[9] = molecular target: GalNAc(b1-3)Gal(a1-4)Gal(b1-4)GlcNAc
Outline: as §1

[10] = molecular target: GalNAc(b1-3)Gal(a1-4)Gal(b1-4)GlcNAc(b1-3)Gal(b1-4)Glc
Outline: as §1

[11] = molecular target: GalNAc(b1-3)Gal(a1-6)Gal(b1-4)Glc
Outline: as §1

[12] = molecular target: GalNAc(b1-3)GalNAc
Outline: as §1

[13] = molecular target: GalNAc(b1-4)GlcNAc
Outline: as §1

[14] = molecular target: GalNAc(b1-4)GlcNAc(b1-2)Man(a1-3)[GalNAc(b1-4)GlcNAc(b1-2)Man(a1-6)]Man(b1-4)GlcNAc(b1-4)GlcNAc
Outline: as §1

[15] = molecular target: Glc(a1-4)Glc
Outline: as §1

[16] = molecular target: Glc(a1-6)Glc(a1-6)Glc
Outline: as §1

[17] = molecular target: Glc(b1-4)Glc
Outline: as §1

[18] = molecular target: Glc(b1-6)Glc
Outline: as §1

[19] = molecular target: GlcA(b1-3)Gal
Outline: as §1

[20] = molecular target: GlcA(b1-3)GlcNAc
Outline: as §1

[21] = molecular target: GlcA(b1-6)Gal
Outline: as §1

[22] = molecular target: GlcNAc(a1-3)Gal(b1-4)GlcNAc
Outline: as §1

[23] = molecular target: GlcNAc(a1-4)Gal(b1-3)GlcNAc
Outline: as §1

[24] = molecular target: GlcNAc(a1-4)Gal(b1-4)GalNAc
Outline: as §1

[25] = molecular target: GlcNAc(a1-4)Gal(b1-4)GlcNAc
Outline: as §1

[26] = molecular target: GlcNAc(a1-4)Gal(b1-4)GlcNAc(b1-3)Gal(b1-4)Glc
Outline: as §1

[27] = molecular target: GlcNAc(a1-4)Gal(b1-4)GlcNAc(b1-3)Gal(b1-4)GlcNAc
Outline: as §1

[28] = molecular target: GlcNAc(a1-4)Gal(b1-4)GlcNAc(b1-3)Gal(b1-4)GlcNAc(b1-3)Gal(b1-4)GlcNAc
Outline: as §1

[29] = molecular target: GlcNAc(a1-4)Gal(b1-4)GlcNAc(b1-3)Gal(b1-4)[Fuc(a1-3)]GlcNAc(b1-3)Gal(b1-4)[Fuc(a1-3)]GlcNAc
Outline: as §1

[30] = molecular target: GlcNAc(a1-6)Gal(b1-4)GlcNAc
Outline: as §1

[31] = molecular target: GlcNAc(b1-2)Gal(b1-3)GalNAc
Outline: as §1

[32] = molecular target: GlcNAc(b1-2)Man(a1-3)[GlcNAc(b1-2)Man(a1-6)]Man(b1-4)GlcNAc(b1-4)GlcNAc
Outline: as §1

[33] = molecular target: GlcNAc(b1-2)Man(a1-3)[GlcNAc(b1-2)Man(a1-6)]Man(b1-4)GlcNAc(b1-4)[Fuc(a1-6)]GlcNAc
Outline: as §1

[34] = molecular target: GlcNAc(b1-2)[GlcNAc(b1-4)]Man(a1-3)[GlcNAc(b1-2)Man(a1-6)]Man(b1-4)GlcNAc(b1-4)GlcNAc
Outline: as §1

[35] = molecular target: GlcNAc(b1-3)Gal
Outline: as §1

[36] = molecular target: GlcNAc(b1-3)Gal(b1-3)GalNAc
Outline: as §1

[37] = molecular target: GlcNAc(b1-3)Gal(b1-4)Glc
Outline: as §1

[38] = molecular target: GlcNAc(b1-3)Gal(b1-4)GlcNAc
Outline: as §1

B1: SLP (Clostridium difficile), Q183M8 (protein)
chain: MATTGTQGYTVVKNDWKKAVKQLQDGLKDNSIGKITVSFNDGVVGEVAPKSANKKADRDAAAEKLYNLVNTQLDKLGDGDYVDFSVDYNLENKIITNQADAEAIVTKLNSLNEKTLIDIATKDTFGMVSKTQDSEGKNVAATKALKVKDVATFGLKSGGSEDTGYVVEMKAGAVEDKYGKVGDSTAGIAINLPSTGLEYAGKGTTIDFNKTLKVDVTGGSTPSAVAVSGFVTKDDTDLAKSGTINVRVINAKEESIDIDASSYTSAENLAKRYVFDPDEISEAYKAIVALQNDGIESNLVQLVNGKYQVIFYPEGKRLETKSLEHHHHHH
- glycan array binding signal (z-score) [1]: -0.122
- glycan array binding signal (z-score) [2]: -0.007
- glycan array binding signal (z-score) [3]: -0.138
- glycan array binding signal (z-score) [4]: -0.144
- glycan array binding signal (z-score) [5]: -0.136
- glycan array binding signal (z-score) [6]: -0.083
- glycan array binding signal (z-score) [7]: -0.145
- glycan array binding signal (z-score) [8]: -0.194
- glycan array binding signal (z-score) [9]: -0.187
- glycan array binding signal (z-score) [10]: -0.149
- glycan array binding signal (z-score) [11]: -0.194
- glycan array binding signal (z-score) [12]: -0.142
- glycan array binding signal (z-score) [13]: -0.188
- glycan array binding signal (z-score) [14]: 6.19
- glycan array binding signal (z-score) [15]: -0.211
- glycan array binding signal (z-score) [16]: -0.147
- glycan array binding signal (z-score) [17]: -0.134
- glycan array binding signal (z-score) [18]: -0.128
- glycan array binding signal (z-score) [19]: -0.135
- glycan array binding signal (z-score) [20]: 0.014
- glycan array binding signal (z-score) [21]: -0.152
- glycan array binding signal (z-score) [22]: -0.169
- glycan array binding signal (z-score) [23]: -0.196
- glycan array binding signal (z-score) [24]: 0.025
- glycan array binding signal (z-score) [25]: -0.187
- glycan array binding signal (z-score) [26]: -0.164
- glycan array binding signal (z-score) [27]: -0.126
- glycan array binding signal (z-score) [28]: -0.18
- glycan array binding signal (z-score) [29]: 0.283
- glycan array binding signal (z-score) [30]: -0.183
- glycan array binding signal (z-score) [31]: -0.072
- glycan array binding signal (z-score) [32]: -0.187
- glycan array binding signal (z-score) [33]: -0.139
- glycan array binding signal (z-score) [34]: -0.186
- glycan array binding signal (z-score) [35]: -0.203
- glycan array binding signal (z-score) [36]: -0.108
- glycan array binding signal (z-score) [37]: -0.201
- glycan array binding signal (z-score) [38]: -0.205
